{"source": "PubChem BioAssay AID1030", "about": "(National Center for Advancing Translational Sciences (NCATS), 2008)", "note": "In all, about 220,000 compounds went through this assay and about 16,000 (7.3%) were called active. Inconclusive results, whose numbers are uncertain, are shown with a selection of clear calls. Calls come from the whole dose curve; as a rule, active = well fitted inhibition curve with a large enough effect (not every such curve was filed as active); inconclusive = small, poorly fitted or top-dose-only effect, or another doubt; inactive = no such curve, though single readings can be large or run the other way. No potency is given beside an inconclusive call; the fits are too rough. Potency is the fitted concentration of half-maximal effect; tags give direction and shape of the fitted curve.", "data": [{"target": "Aldehyde dehydrogenase 1A1 (Homo sapiens) (UniProt P00352)", "sequence (P00352 whole entry, looked up)": "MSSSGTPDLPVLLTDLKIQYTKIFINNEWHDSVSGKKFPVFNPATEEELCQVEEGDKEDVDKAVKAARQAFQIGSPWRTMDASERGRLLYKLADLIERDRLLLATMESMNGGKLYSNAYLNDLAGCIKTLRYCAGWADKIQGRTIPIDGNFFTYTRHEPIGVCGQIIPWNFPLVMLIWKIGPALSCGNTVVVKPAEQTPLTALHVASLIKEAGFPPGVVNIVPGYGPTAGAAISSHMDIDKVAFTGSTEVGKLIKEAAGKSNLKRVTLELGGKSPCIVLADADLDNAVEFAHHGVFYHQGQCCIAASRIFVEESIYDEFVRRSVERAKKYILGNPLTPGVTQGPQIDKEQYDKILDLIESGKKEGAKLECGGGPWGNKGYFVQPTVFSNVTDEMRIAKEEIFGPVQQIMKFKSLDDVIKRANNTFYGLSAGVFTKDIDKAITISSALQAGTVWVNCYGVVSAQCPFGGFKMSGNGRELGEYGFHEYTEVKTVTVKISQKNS", "assay": "qHTS Assay for Inhibitors of Aldehyde Dehydrogenase 1 (ALDH1A1);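 for activity, negative = inhibition: plate controls were no enzyme wells and a reference inhibitor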", "conditions": "Purified ALDH1A1, NADH fluorescence, propionaldehyde substrate; series mostly up to 75.3 µM", "values": [{"smiles": "O=S(=O)(Nc1ccc(S(=O)(=O)N2CCCCC2)cc1)c1cccs1", "Potency": "active: 12.6 µM"}, {"smiles": "COc1ccc(C(CCN(Cc2ccc(OC)c(OC)c2)C(=O)CCl)c2ccccc2)cc1", "note": "(configuration not stated)", "Potency": "active: 3.55 µM"}, {"smiles": "Cc1c(Cc2ccc3c(c2)OCO3)sc(NC(=O)c2ccc3ccccc3c2)c1C(N)=O", "Potency": "inconclusive [inhibitor, partial curve]"}, {"smiles": "O=C(O)c1ccc(NS(=O)(=O)Cc2ccccc2)cc1", "activity, negative = inhibition": "inactive: -2.92% [at 13.5 µM]"}, {"smiles": "CCC(C(=O)Nc1ccc(C)cc1)c1ccccc1", "note": "(configuration not stated)", "Potency": "inconclusive [inhibitor, single point]"}, {"smiles": "CCN(CC)CCCN1C(=O)c2oc3ccccc3c(=O)c2C1c1cc(OC)ccc1OC", "note": "(configuration not stated)", "Potency": "inactive"}, {"smiles": "O=C(CC1CC2CCC1C2)OCC(=O)c1c[nH]c2ccccc12", "note": "(configuration not stated)", "Potency": "inconclusive [inhibitor, partial curve]"}, {"smiles": "Cc1cc(=O)oc2cc(OCC(=O)NCc3ccco3)ccc12", "Potency": "inconclusive [inhibitor, single point]"}, {"smiles": "CCOC(=O)C1CCN(C(=O)c2ccc(SC)cc2OC)CC1", "Potency": "inactive"}, {"smiles": "Cc1cccn2c(=O)c3cc(C(=O)NCc4cccnc4)c(=N)n(C(C)C)c3nc12", "Potency": "inconclusive [inhibitor, partial curve]"}, {"smiles": "COC(=O)c1c(NC(=O)c2cccnc2)sc(C)c1C", "Potency": "inactive"}, {"smiles": "Cc1cccc(NC(=S)N(Cc2cccc(Br)c2)CC2CCC(C(=O)O)CC2)c1", "note": "(configuration not stated)", "Potency": "inconclusive [inhibitor, single point]"}, {"smiles": "COC(=O)c1sccc1-c1ccc(C(=O)Nc2cccc(Cl)c2)o1", "Potency": "inconclusive [inhibitor, single point]"}, {"smiles": "COC(=O)c1c(S(N)(=O)=O)c2ccccc2n1C", "Potency": "inconclusive [inhibitor, single point]"}, {"smiles": "Cc1ccc(/C=N/NC(=O)c2csc(C)c2)o1", "Potency": "inconclusive [inhibitor, single point]"}, {"smiles": "C/C(=N/Nc1ccc(F)cc1)c1ccc(Cl)s1", "Potency": "inconclusive [inhibitor, single point]"}, {"smiles": "CCCc1nc2ccc(NC(=O)c3ccco3)cc2c(=O)n1Cc1ccccc1Cl", "Potency": "inactive"}, {"smiles": "CN(C1CCCC1)C1CCN(C(=S)Nc2cc(F)cc(F)c2)CC1", "Potency": "inactive"}, {"smiles": "Cc1ccccc1CNS(=O)(=O)c1ccccc1[N+](=O)[O-]", "Potency": "inconclusive [inhibitor, single point]"}, {"smiles": "CCCCOc1ccc(C(=O)NNC(=S)NC(=O)CC)cc1", "Potency": "inactive"}, {"smiles": "Cc1cc2ncn(N)c2cc1C", "Potency": "inactive"}, {"smiles": "CCOc1ccc(C(=O)CN2CCN(S(=O)(=O)c3ccc(Cl)cc3)CC2)cc1", "Potency": "inconclusive [inhibitor, single point]"}, {"smiles": "CNC(=O)C1CC(=O)N(c2ccc(C)cc2)C1", "note": "(configuration not stated)", "Potency": "inactive"}, {"smiles": "CC(C)CC1(C(=O)NCc2cc(F)cc(C(F)(F)F)c2)C=CCN1C(=O)c1ccccc1", "note": "(configuration not stated)", "Potency": "inactive"}, {"smiles": "O=C(Nc1ccccc1-c1nnc(SCc2ccccc2)o1)c1ccccc1", "Potency": "inconclusive [inhibitor, single point]"}, {"smiles": "CCCCc1ccc(-c2nc(-c3ccncc3)no2)cc1", "Potency": "active: 6.31 µM"}, {"smiles": "COCC(C)NCc1cc(Br)ccc1OC", "note": "(configuration not stated)", "Potency": "inconclusive [inhibitor, partial curve]"}, {"smiles": "CC1(C)CC(=O)c2c(O)cc(OCc3ccc(Br)cc3)cc2O1", "Potency": "inconclusive [inhibitor, single point]"}, {"smiles": "O=C(O)c1ccccc1C(=O)N1CCN(c2cccc(Cl)c2)CC1", "Potency": "inconclusive [inhibitor, single point]"}, {"smiles": "CC(Oc1ccc(-c2nccc(-c3ccccn3)n2)cc1)C(=O)NN", "note": "(configuration not stated)", "Potency": "active: 17.8 µM"}, {"smiles": "Cc1cc(=O)oc2cc(OCC(=O)Nc3ccc(S(=O)(=O)N(C)C)cc3)ccc12", "Potency": "inconclusive [inhibitor, partial curve]"}, {"smiles": "CC(=O)OCCN(CCOC(C)=O)c1c(C)[nH]c(=O)[nH]c1=O", "Potency": "inconclusive [inhibitor, single point]"}, {"smiles": "CC(C)CC(NC(N)=O)C(=O)Nc1ccc(Oc2ccccc2)cc1", "note": "(configuration not stated)", "Potency": "inactive"}, {"smiles": "CC1CCCN(c2cc(N(C)CCO)c([N+](=O)[O-])c3nonc23)C1", "note": "(configuration not stated)", "Potency": "inconclusive [inhibitor, partial curve]"}, {"smiles": "N#C/C(=C\\c1cccc([N+](=O)[O-])c1)c1ccccn1", "Potency": "inconclusive [inhibitor, single point]"}, {"smiles": "COc1cc(C2C(C#N)=C(N)Oc3cc(C)n(CCN4CCOCC4)c(=O)c32)cc(OC)c1OC", "note": "(configuration not stated)", "Potency": "inconclusive [inhibitor, partial curve]"}, {"smiles": "NC(=O)c1sc2nc3c(cc2c1N)CCCCCC3", "Potency": "inconclusive [inhibitor, single point]"}, {"smiles": "FC(F)(F)c1ccc(CN2C[C@@H]3C(c4ccc(C(F)(F)F)cc4)C4(c5ccccc5)CC3(C4)[C@H]2c2ccccc2)cc1", "note": "(some centres not stated)", "Potency": "inactive"}, {"smiles": "CC1(C)CSC(=S)N1S(=O)(=O)c1ccccc1", "Potency": "inconclusive [inhibitor, single point]"}, {"smiles": "O=[N+]([O-])c1cc(S(=O)(=O)N2CCCC2)ccc1N/N=C/c1cccs1", "Potency": "inconclusive [inhibitor, partial curve, poor fit]"}, {"smiles": "O=C(N/N=C/c1ccc(N2CCOCC2)cc1)c1ccccc1NS(=O)(=O)c1cccs1", "Potency": "inconclusive [inhibitor, partial curve]"}, {"smiles": "CCCCNC(=O)CSc1nnc(Cc2ccccc2)n1CC", "Potency": "inconclusive [inhibitor, single point]"}, {"smiles": "COCCNC(=O)C(OC(=O)C1=Cc2ccccc2OC1)C(C)C", "note": "(configuration not stated)", "Potency": "inconclusive [inhibitor, partial curve]"}, {"smiles": "Cc1cc(Cl)ccc1NC(=S)NCC(C)C", "Potency": "inactive"}, {"smiles": "O=c1nc2n(c3sc4c(c13)CCCC4)C(CBr)CS2", "note": "(configuration not stated)", "Potency": "active: 12.6 µM"}, {"smiles": "N#C/C(=C(/O)c1ccc(C(=O)c2ccccc2)cc1)c1nc2ccccc2[nH]1", "Potency": "inactive"}, {"smiles": "CNc1ccc(Br)cc(C(=O)/C=C/c2ccc(OC)cc2OC)c1=O", "Potency": "inconclusive [inhibitor, partial curve]"}, {"smiles": "O=C(Cc1cccs1)NC1C(=O)N2C(C(=O)[O-])=C(C[n+]3ccccc3)CSC12", "note": "(configuration not stated)", "Potency": "active: 28.2 µM"}, {"smiles": "CC(=O)NC1CCCN(O)C(=O)/C=C(\\C)CCOC(=O)C(NC(C)=O)CCCN(O)C(=O)/C=C(\\C)CCOC(=O)C(NC(C)=O)CCCN(O)C(=O)/C=C(\\C)CCOC1=O", "note": "(configuration not stated)", "Potency": "inactive"}, {"smiles": "CC(=O)N1CCc2cc(S(=O)(=O)NCCC(=O)N3CCN(Cc4ccccc4)CC3)ccc21", "Potency": "inconclusive [inhibitor, single point]"}, {"smiles": "COCCN(C(=O)CCCC(=O)Nc1ccccn1)C(C(=O)NC1CCCC1)c1ccc(C)cc1", "note": "(configuration not stated)", "Potency": "inactive"}, {"smiles": "CC(C)(C)C(=O)[C@@H]1[C@@H]2C(=O)N(C3CCCCC3)C(=O)[C@@H]2[C@H]2c3ccccc3C=CN12", "Potency": "active: 20 µM"}, {"smiles": "Cc1cc(=O)oc2c(CN3CCCCC3)c(O)c(Cl)cc12", "Potency": "inconclusive [inhibitor, partial curve]"}, {"smiles": "Cc1ccc(C)c(SCC(=O)OCC(=O)N2CC(C)OC(C)C2)c1", "note": "(configuration not stated)", "Potency": "inactive"}, {"smiles": "O=C(c1ccc(S(=O)(=O)N2CCOCC2)cc1)N1CCOCC1", "Potency": "inactive"}, {"smiles": "O=C(Nc1cccnc1)c1ccccc1Oc1ccccc1", "Potency": "active: 17.8 µM"}, {"smiles": "N#Cc1c(N)sc(=S)c2c1CCCCC2", "Potency": "inconclusive [inhibitor, partial curve]"}, {"smiles": "Cc1cccc(NC(=O)CN2CCN(CC(=O)Nc3cccc(C)c3)CC2)c1", "Potency": "active: 20 µM"}, {"smiles": "Cc1nn2c(NCC(C)C)c3c(nc2c1-c1ccccc1)CCC3", "Potency": "inconclusive [inhibitor, single point]"}, {"smiles": "COC(=O)c1c(NC(=O)c2ccco2)sc2c1CCC2", "Potency": "inconclusive [inhibitor, partial curve]"}, {"smiles": "COc1ccc(OC)c(NC(=O)CSc2nnc(-c3ccco3)n2-c2ccc(C(=O)O)cc2)c1", "Potency": "active: 25.1 µM"}, {"smiles": "COc1ccc(C(C(=O)NC2CCCC2)N(Cc2ccccc2)C(=O)CNC(=O)c2ccco2)cc1", "note": "(configuration not stated)", "Potency": "inconclusive [inhibitor, partial curve]"}, {"smiles": "Cc1ccc(NC(=O)Nc2cc(C)on2)cc1", "Potency": "inconclusive [inhibitor, single point]"}, {"smiles": "N#Cc1c(NC(=O)Cn2nc(C(F)(F)F)c3c2CCCC3)sc2c1CCC2", "Potency": "active: 7.94 µM"}, {"smiles": "COc1ccc(NC(=S)Nc2cc(-c3ccccc3)[nH]n2)cc1Cl", "Potency": "active: 10 µM"}, {"smiles": "CCOC(=O)c1oc2nc3c(cc2c1N)COC(C)(C)C3", "Potency": "inconclusive [inhibitor, partial curve]"}, {"smiles": "CC(C)(C)c1ccc(/C=N/NC(=O)Cc2c[nH]c3ccccc23)cc1", "Potency": "inconclusive [inhibitor, single point]"}, {"smiles": "Nc1cc(C(=O)O)ccc1Sc1ccccc1C(=O)O", "Potency": "inconclusive [inhibitor, full curve]"}, {"smiles": "CC(=O)c1cccc(N2Cc3ccccc3C2=NC(=O)CCl)c1", "Potency": "active: 3.55 µM"}, {"smiles": "N#Cc1nc(-c2ccc(OCc3ccccc3)cc2)oc1NCCCn1ccnc1", "Potency": "inconclusive [inhibitor, partial curve]"}, {"smiles": "CC1(C)CC(=O)C2=C(C1)N(CCN1CCOCC1)C1=C(C(=O)CC(C)(C)C1)C2c1cccc(Cl)c1", "Potency": "inconclusive [inhibitor, partial curve]"}, {"smiles": "CC1Cc2cc(-c3csc(NC(=O)Cc4cccs4)n3)ccc2N1S(C)(=O)=O", "note": "(configuration not stated)", "Potency": "inconclusive [inhibitor, partial curve]"}]}]}
